In the supplement of paper PMC4967469:
IC50 is the fitted dose that halves viability relative to control wells, and lower means more sensitive; a limit (>, <) means that the fit lies beyond the doses tested. The AUC spans the tested range (256-fold, ending at the top dose) of the same fit; the more sensitive the line, the further below 1. The top dose, if marked as inferred, is not printed in the source and was worked back from the curve model. For some assays here: Drugs with an entry number were screened twice under separate entries, and the two screens often disagree.

Tests used:
GSK429286A = compound: CC1=C(C(=O)Nc2cc3cn[nH]c3cc2F)C(c2ccc(C(F)(F)F)cc2)CC(=O)N1 [GSK429286A]; experiment: Viability of human cancer cell lines after 72 h of drug (GDSC screen); details: top dose inferred
Protocol: (§1)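 Human cancer cell lines in 384-well plates, medium with 10% serum, drug for 72 h over a 256-fold dose range (nine 2-fold or five 4-fold steps up to the top dose). Adherent lines were fixed and stained with the nucleic acid dye Syto60, suspension lines read with resazurin; signal relative to control wells, capped at 0 and 100%. One two-parameter sigmoid per drug and line, fitted in a mixed model over all curves with the slope shared within a line.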

AKT inhibitor VIII = compound: O=c1[nH]c2ccccc2n1C1CCN(Cc2ccc(-c3[nH]c4cc5ncnc5cc4nc3-c3ccccc3)cc2)CC1 [AKT inhibitor VIII]; experiment: as above; details: top dose inferred
Protocol: as §1

[1] = top dose 2.56 µM, screen: GDSC drug entry 171
[2] = top dose 10.24 µM, screen: GDSC drug entry 228

Cell Line | AUC (GSK429286A) | IC50 (GSK429286A) | AUC (AKT inhibitor VIII; [1]) | IC50 (AKT inhibitor VIII; [1]) | AUC (AKT inhibitor VIII; [2]) | IC50 (AKT inhibitor VIII; [2])
8-MG-BA (glioma, adherent, top dose 20 µM) | 0.947 | > 20 µM | – | – | – | –
22RV1 (prostate, adherent, top dose 20 µM) | 0.966 | > 20 µM | – | – | – | –
42-MG-BA (glioma, adherent, top dose 20 µM) | 0.975 | > 20 µM | – | – | – | –
201T (lung adenocarcinoma, adherent, top dose 20 µM) | 0.968 | > 20 µM | – | – | – | –
451Lu (melanoma, adherent, top dose 20 µM) | 0.985 | > 20 µM | – | – | – | –
639-V (bladder, adherent, top dose 20 µM) | 0.987 | > 20 µM | – | – | – | –
647-V (bladder, adherent, top dose 20 µM) | 0.987 | > 20 µM | – | – | – | –
697 (lymphoblastic leukaemia, suspension, top dose 20 µM) | 0.892 | 15.4 µM | – | – | – | –
769-P (kidney, adherent, top dose 20 µM) | 0.894 | > 20 µM | – | – | – | –
786-0 (kidney, adherent, top dose 20 µM) | 0.97 | > 20 µM | – | – | – | –
5637 (bladder, adherent, top dose 20 µM) | 0.949 | > 20 µM | – | – | – | –
8305C (thyroid, adherent, top dose 20 µM) | 0.977 | > 20 µM | – | – | – | –
8505C (thyroid, adherent, top dose 20 µM) | 0.953 | > 20 µM | – | – | – | –
23132-87 (stomach, adherent, top dose 20 µM) | 0.985 | > 20 µM | – | – | – | –
A3-KAW (B-cell lymphoma, suspension, top dose 20 µM) | 0.902 | 16.6 µM | – | – | – | –
A4-Fuk (B-cell lymphoma, suspension, top dose 20 µM) | 0.935 | > 20 µM | – | – | – | –
A101D (melanoma, adherent, top dose 20 µM) | 0.98 | > 20 µM | – | – | – | –
A172 (glioma, adherent, top dose 20 µM) | 0.979 | > 20 µM | – | – | – | –
A204 (rhabdomyosarcoma, adherent, top dose 20 µM) | 0.912 | > 20 µM | – | – | – | –
A253 (head and neck, adherent, top dose 20 µM) | 0.985 | > 20 µM | – | – | – | –
A375 (melanoma, adherent, top dose 20 µM) | 0.978 | > 20 µM | – | – | – | –

Cell Line | AUC (GSK429286A) | IC50 (GSK429286A) | AUC (AKT inhibitor VIII; [1]) | IC50 (AKT inhibitor VIII; [1]) | AUC (AKT inhibitor VIII; [2]) | IC50 (AKT inhibitor VIII; [2])
A388 (skin, adherent, top dose 20 µM) | 0.983 | > 20 µM | – | – | – | –
NCI-H2291 (lung adenocarcinoma, adherent) | – | – | 0.981 | > 2.56 µM | 0.936 | > 10.2 µM
NUGC-3 (stomach, adherent) | – | – | 0.855 | 2.46 µM | 0.972 | > 10.2 µM
OAW-28 (ovary, adherent) | – | – | 0.965 | > 2.56 µM | 0.908 | > 10.2 µM
OSC-19 (head and neck, adherent) | – | – | 0.983 | > 2.56 µM | 0.942 | > 10.2 µM
OVCAR-3 (ovary, adherent) | – | – | 0.795 | 1.32 µM | 0.987 | > 10.2 µM
PANC-10-05 (pancreas, adherent) | – | – | 0.943 | > 2.56 µM | 0.812 | 7.49 µM
PC-3 (prostate, adherent) | – | – | 0.918 | > 2.56 µM | 0.861 | > 10.2 µM
PCI-38 (head and neck, adherent) | – | – | 0.87 | 2.41 µM | 0.939 | > 10.2 µM
PL18 (pancreas, adherent) | – | – | 0.896 | > 2.56 µM | 0.988 | > 10.2 µM
RD (rhabdomyosarcoma, adherent) | – | – | 0.942 | > 2.56 µM | 0.904 | > 10.2 µM
RERF-GC-1B (stomach, adherent) | – | – | 0.959 | > 2.56 µM | 0.817 | 6.6 µM
RL95-2 (endometrium, adherent) | – | – | 0.985 | > 2.56 µM | 0.964 | > 10.2 µM
RS4-11 (leukaemia, suspension) | – | – | 0.896 | > 2.56 µM | 0.575 | 1 µM
RT-112 (bladder, adherent) | – | – | 0.91 | > 2.56 µM | 0.839 | 7.78 µM
SK-CO-1 (large intestine, adherent) | – | – | 0.923 | > 2.56 µM | 0.989 | > 10.2 µM
SK-LU-1 (lung adenocarcinoma, adherent) | – | – | 0.954 | > 2.56 µM | 0.884 | > 10.2 µM
SK-MEL-28 (melanoma, adherent) | – | – | 0.962 | > 2.56 µM | 0.948 | > 10.2 µM
SN12C (kidney, adherent) | – | – | 0.944 | > 2.56 µM | 0.972 | > 10.2 µM
SNU-175 (large intestine, suspension) | – | – | – | – | 0.719 | 2.55 µM
SNU-398 (liver, adherent) | – | – | 0.908 | > 2.56 µM | 0.865 | 9.66 µM

Cell Line | AUC (GSK429286A) | IC50 (GSK429286A) | AUC (AKT inhibitor VIII; [1]) | IC50 (AKT inhibitor VIII; [1]) | AUC (AKT inhibitor VIII; [2]) | IC50 (AKT inhibitor VIII; [2])
SNU-475 (liver, adherent) | – | – | 0.988 | > 2.56 µM | 0.823 | 5.15 µM
SNU-1040 (large intestine, adherent) | – | – | – | – | 0.743 | 4.12 µM
SU-DHL-1 (anaplastic large cell lymphoma, suspension) | – | – | 0.997 | > 2.56 µM | 0.881 | 5.74 µM
SU-DHL-8 (B-cell lymphoma, suspension) | – | – | 0.962 | > 2.56 µM | 0.767 | 3.56 µM
SU-DHL-10 (B-cell lymphoma, suspension) | – | – | 0.961 | > 2.56 µM | 0.532 | 0.762 µM
SW156 (kidney, adherent) | – | – | 0.939 | > 2.56 µM | 0.923 | > 10.2 µM
SW837 (large intestine, adherent) | – | – | 0.969 | > 2.56 µM | 0.896 | > 10.2 µM
SW872 (soft tissue, adherent) | – | – | 0.956 | > 2.56 µM | 0.981 | > 10.2 µM
SW900 (lung squamous cell carcinoma, adherent) | – | – | 0.931 | > 2.56 µM | 0.947 | > 10.2 µM
SW1088 (glioma, adherent) | – | – | 0.956 | > 2.56 µM | 0.941 | > 10.2 µM
SW1116 (large intestine, adherent) | – | – | – | – | 0.963 | > 10.2 µM
SW1463 (large intestine, adherent) | – | – | 0.959 | > 2.56 µM | 0.978 | > 10.2 µM
T-24 (bladder, adherent) | – | – | 0.985 | > 2.56 µM | 0.967 | > 10.2 µM
TALL-1 (T-cell lymphoblastic leukaemia, suspension) | – | – | 0.99 | > 2.56 µM | 0.941 | > 10.2 µM
TCCSUP (bladder, adherent) | – | – | 0.896 | > 2.56 µM | 0.982 | > 10.2 µM
TGBC24TKB (biliary tract, adherent) | – | – | 0.962 | > 2.56 µM | 0.848 | 6.91 µM
U031 (kidney, adherent) | – | – | 0.955 | > 2.56 µM | 0.879 | > 10.2 µM
UACC-812 (breast, adherent) | – | – | 0.991 | > 2.56 µM | 0.939 | > 10.2 µM
VCaP (prostate, adherent) | – | – | 0.942 | > 2.56 µM | 0.731 | 2.99 µM
VM-CUB-1 (bladder, adherent) | – | – | 0.966 | > 2.56 µM | 0.989 | > 10.2 µM
YMB-1-E (breast, adherent) | – | – | – | – | 0.634 | 1.72 µM
